# Assay results reported in the supplement of paper PMC8728848.
# The other results are listed elsewhere or left out.
# How the values were obtained:
# Assay in all cases: glycan array binding signal (z-score within array); higher = stronger binding
# Settings in all cases: glycan notation: IUPAC condensed, linker removed
# [1] = target: Neu5Ac(a2-3)Gal(b1-4)GlcNAc(b1-3)Gal(b1-4)GlcNAc(b1-2)Man(a1-3)[Neu5Ac(a2-3)Gal(b1-4)GlcNAc(b1-3)Gal(b1-4)GlcNAc(b1-2)Man(a1-6)]Man(b1-4)GlcNAc(b1-4)GlcNAc
# Summary of the method: (§1)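 Glycan array data were curated from 3228 arrays in the Consortium for Functional Glycomics database and kept only where the protein sequence was available. Glycan names were converted to IUPAC-condensed notation, and columns mapping to the same glycan were averaged. The binding signal is a within-array Z-score, averaged across arrays of the same protein sequence at different concentrations or buffers and across linkers. Negative Z-scores can be read as non-binding.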
# [2] = target: Neu5Ac(a2-3)Gal(b1-4)GlcNAc(b1-3)Gal(b1-4)GlcNAc(b1-3)Gal(b1-4)GlcNAc
# Summary of the method: as §1
# [3] = target: Neu5Ac(a2-3)Gal(b1-4)GlcNAc(b1-3)Gal(b1-4)GlcNAc(b1-3)Gal(b1-4)GlcNAc(b1-2)Man(a1-3)[Neu5Ac(a2-3)Gal(b1-4)GlcNAc(b1-3)Gal(b1-4)GlcNAc(b1-3)Gal(b1-4)GlcNAc(b1-2)Man(a1-6)]GalNAc
# Summary of the method: as §1
# [4] = target: Neu5Ac(a2-3)Gal(b1-4)GlcNAc(b1-3)Gal(b1-4)GlcNAc(b1-3)GalNAc
# Summary of the method: as §1
# [5] = target: Neu5Ac(a2-3)Gal(b1-4)GlcNAc(b1-3)Gal(b1-4)GlcNAc(b1-3)[Neu5Ac(a2-3)Gal(b1-4)GlcNAc(b1-3)Gal(b1-4)GlcNAc(b1-6)]GalNAc
# Summary of the method: as §1
# [6] = target: Neu5Ac(a2-3)Gal(b1-4)GlcNAc(b1-3)Gal(b1-4)GlcNAc(b1-6)[Gal(b1-3)]GalNAc
# Summary of the method: as §1
# [7] = target: Neu5Ac(a2-3)Gal(b1-4)GlcNAc(b1-3)Gal(b1-4)[Fuc(a1-3)]GlcNAc
# Summary of the method: as §1
# [8] = target: Neu5Ac(a2-3)Gal(b1-4)GlcNAc(b1-3)GalNAc
# Summary of the method: as §1
# [9] = target: Neu5Ac(a2-3)Gal(b1-4)GlcNAc(b1-3)[Neu5Ac(a2-3)Gal(b1-4)GlcNAc(b1-6)]GalNAc
# Summary of the method: as §1
# [10] = target: Neu5Ac(a2-3)Gal(b1-4)GlcNAc(b1-6)GalNAc
# Summary of the method: as §1
# [11] = target: Neu5Ac(a2-3)Gal(b1-4)GlcNAc(b1-6)[Gal(b1-3)]GalNAc
# Summary of the method: as §1
# [12] = target: Neu5Ac(a2-3)Gal(b1-4)GlcNAc(b1-6)[Neu5Ac(a2-3)Gal(b1-3)]GalNAc
# Summary of the method: as §1
# [13] = target: Neu5Ac(a2-3)Gal(b1-4)GlcNAc6S
# Summary of the method: as §1
# [14] = target: Neu5Ac(a2-3)Gal(b1-4)[Fuc(a1-3)]GlcNAc
# Summary of the method: as §1
# [15] = target: Neu5Ac(a2-3)Gal(b1-4)[Fuc(a1-3)]GlcNAc(b1-2)Man
# Summary of the method: as §1
# [16] = target: Neu5Ac(a2-3)Gal(b1-4)[Fuc(a1-3)]GlcNAc(b1-3)Gal
# Summary of the method: as §1
# [17] = target: Neu5Ac(a2-3)Gal(b1-4)[Fuc(a1-3)]GlcNAc(b1-3)Gal(b1-4)GlcNAc
# Summary of the method: as §1
# [18] = target: Neu5Ac(a2-3)Gal(b1-4)[Fuc(a1-3)]GlcNAc(b1-3)Gal(b1-4)[Fuc(a1-3)]GlcNAc(b1-3)Gal(b1-4)[Fuc(a1-3)]GlcNAc
# Summary of the method: as §1
# [19] = target: Neu5Ac(a2-3)Gal(b1-4)[Fuc(a1-3)]GlcNAc(b1-3)GalNAc
# Summary of the method: as §1
# [20] = target: Neu5Ac(a2-3)Gal(b1-4)[Fuc(a1-3)]GlcNAc(b1-6)[Gal(b1-3)]GalNAc
# Summary of the method: as §1
# [21] = target: Neu5Ac(a2-3)Gal(b1-4)[Fuc(a1-3)]GlcNAc(b1-6)[Neu5Ac(a2-3)Gal(b1-3)]GalNAc
# Summary of the method: as §1
# [22] = target: Neu5Ac(a2-3)Gal(b1-4)[Fuc(a1-3)]GlcNAc6S
# Summary of the method: as §1
# [23] = target: Neu5Ac(a2-3)Gal6S(b1-4)GlcNAc
# Summary of the method: as §1
# [24] = target: Neu5Ac(a2-3)Gal6S(b1-4)[Fuc(a1-3)]GlcNAc
# Summary of the method: as §1
# Neu5Ac(a2-3)GalNAc = target: Neu5Ac(a2-3)GalNAc
# Summary of the method: as §1
# [25] = target: Neu5Ac(a2-3)GalNAc(b1-4)GlcNAc
# Summary of the method: as §1
# [26] = target: Neu5Ac(a2-3)[GalNAc(b1-4)]Gal(b1-4)Glc
# Summary of the method: as §1
# [27] = target: Neu5Ac(a2-3)[GalNAc(b1-4)]Gal(b1-4)GlcNAc
# Summary of the method: as §1
# [28] = target: Neu5Ac(a2-3)[GalNAc(b1-4)]Gal(b1-4)GlcNAc(b1-3)GalNAc
# Summary of the method: as §1
# [29] = target: Neu5Ac(a2-3)[Neu5Ac(a2-6)]GalNAc
# Summary of the method: as §1
# Neu5Ac(a2-6)Gal = target: Neu5Ac(a2-6)Gal
# Summary of the method: as §1
# [30] = target: Neu5Ac(a2-6)Gal(b1-3)GlcNAc(b1-3)[Gal(b1-4)GlcNAc(b1-6)]Gal(b1-4)Glc
# Summary of the method: as §1
# Neu5Ac(a2-6)Gal(b1-4)Glc = target: Neu5Ac(a2-6)Gal(b1-4)Glc
# Summary of the method: as §1
# [31] = target: Neu5Ac(a2-6)Gal(b1-4)GlcNAc
# Summary of the method: as §1
# [32] = target: Neu5Ac(a2-6)Gal(b1-4)GlcNAc(b1-2)Man
# Summary of the method: as §1
# [33] = target: Neu5Ac(a2-6)Gal(b1-4)GlcNAc(b1-2)Man(a1-3)Man(b1-4)GlcNAc(b1-4)GlcNAc
# Summary of the method: as §1
# [34] = target: Neu5Ac(a2-6)Gal(b1-4)GlcNAc(b1-2)Man(a1-3)[Gal(b1-4)GlcNAc(b1-2)Man(a1-6)]Man(b1-4)GlcNAc(b1-4)GlcNAc
# Summary of the method: as §1
# [35] = target: Neu5Ac(a2-6)Gal(b1-4)GlcNAc(b1-2)Man(a1-3)[GlcNAc(b1-2)Man(a1-6)]Man(b1-4)GlcNAc(b1-4)GlcNAc
# Summary of the method: as §1
binder,measurement,setting,value
"Gal 8 (Mus musculus), Q9JL15 (protein) MGGSHHHHHHGMASMLSLNNLQNIIYNPIIPYVGTITEQLKPGSLIVIRGHVPKDSERFQVDFQLGNSLKPRADVAFHFNPRFKRSSCIVCNTLTQEKWGWEEITYDMPFRKEKSFEIVFMVLKNKFQVAVNGRHVLLYAHRISPEQIDTVGIYGKVNIHSIGFRFSSASALPHTLGDLQSMETSALGLTQINRENIQKPGKLQLSLPFEARLNASMGPGRTVVIKGEVNTNARSFNVDLVAGKTRDIALHLNPRLNVKAFVRNSFLQDAWGEEERNITCFPFSSGMYFEMIIYCDVREFKVAINGVHSLEYKHRFKDLSSIDTLSVDGDIRLLDVRSW",glycan array binding signal (z-score),[1],0.099
same,glycan array binding signal (z-score),[2],0.194
same,glycan array binding signal (z-score),[3],-0.088
same,glycan array binding signal (z-score),[4],-0.16
same,glycan array binding signal (z-score),[5],0.882
same,glycan array binding signal (z-score),[6],0.264
same,glycan array binding signal (z-score),[7],-0.215
same,glycan array binding signal (z-score),[8],-0.525
same,glycan array binding signal (z-score),[9],-0.507
same,glycan array binding signal (z-score),[10],-0.509
same,glycan array binding signal (z-score),[11],-0.33
same,glycan array binding signal (z-score),[12],-0.254
same,glycan array binding signal (z-score),[13],-0.146
same,glycan array binding signal (z-score),[14],-0.543
same,glycan array binding signal (z-score),[15],-0.542
same,glycan array binding signal (z-score),[16],-0.548
same,glycan array binding signal (z-score),[17],-0.53
same,glycan array binding signal (z-score),[18],-0.553
same,glycan array binding signal (z-score),[19],-0.485
same,glycan array binding signal (z-score),[20],-0.499
same,glycan array binding signal (z-score),[21],0.737
same,glycan array binding signal (z-score),[22],-0.52
same,glycan array binding signal (z-score),[23],-0.549
same,glycan array binding signal (z-score),[24],-0.546
same,glycan array binding signal (z-score),Neu5Ac(a2-3)GalNAc,-0.537
same,glycan array binding signal (z-score),[25],-0.542
same,glycan array binding signal (z-score),[26],-0.543
same,glycan array binding signal (z-score),[27],-0.54
same,glycan array binding signal (z-score),[28],-0.502
same,glycan array binding signal (z-score),[29],-0.546
same,glycan array binding signal (z-score),Neu5Ac(a2-6)Gal,-0.511
same,glycan array binding signal (z-score),[30],-0.258
same,glycan array binding signal (z-score),Neu5Ac(a2-6)Gal(b1-4)Glc,-0.311
same,glycan array binding signal (z-score),[31],-0.544
same,glycan array binding signal (z-score),[32],-0.548
same,glycan array binding signal (z-score),[33],-0.537
same,glycan array binding signal (z-score),[34],0.227
same,glycan array binding signal (z-score),[35],-0.547
